# According to the supplement of paper PMC8728848:
# The other results are listed elsewhere or left out.
# B1: WGA (Triticum vulgare) (protein)
# chain: QRCGEQGSNMECPNNLCCSQYGYCGMGGDYCGKGCQNGACWTSKRCGSQAGGATCPNNHCCSQYGHCGFGAEYCGAGCQGGPCRADIKCGSQSGGKLCPNNLCCSQWGFCGLGSEFCGGGCQSGACSTDKPCGKDAGGRVCTNNYCCSKWGSCGIGPGYCGAGCQSGGCDAVFAGAITANSTLLAE
# What was measured:
# Test in all cases: glycan array binding signal (z-score within array); higher = stronger binding
# Settings in all cases: glycan notation: IUPAC condensed, linker removed
# [1] = target: Neu5Ac(a2-3)Gal(b1-3)[Fuc(a1-4)]GlcNAc(b1-3)Gal(b1-3)[Fuc(a1-4)]GlcNAc
# Procedure, shortened: (§1)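 Glycan array data were curated from 3228 arrays in the Consortium for Functional Glycomics database and kept only where the protein sequence was available. Glycan names were converted to IUPAC-condensed notation, and columns mapping to the same glycan were averaged. The binding signal is a within-array Z-score, averaged across arrays of the same protein sequence at different concentrations or buffers and across linkers. Negative Z-scores can be read as non-binding.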
# [2] = target: Neu5Ac(a2-3)Gal(b1-3)[Fuc(a1-4)]GlcNAc(b1-3)Gal(b1-4)[Fuc(a1-3)]GlcNAc
# Procedure, shortened: as §1
# [3] = target: Neu5Ac(a2-3)Gal(b1-3)[GlcNAc(b1-6)]GalNAc
# Procedure, shortened: as §1
# [4] = target: Neu5Ac(a2-3)Gal(b1-3)[Neu5Ac(a2-3)Gal(b1-4)]GlcNAc
# Procedure, shortened: as §1
# [5] = target: Neu5Ac(a2-3)Gal(b1-3)[Neu5Ac(a2-6)]GalNAc
# Procedure, shortened: as §1
# [6] = target: Neu5Ac(a2-3)Gal(b1-3)[Neu5Ac(a2-6)]GlcNAc(b1-3)[Fuc(a1-3)[Gal(b1-4)]GlcNAc(b1-6)]Gal(b1-4)Glc
# Procedure, shortened: as §1
# [7] = target: Neu5Ac(a2-3)Gal(b1-3)]Neu5Ac(a2-3)Gal(b1-4)]GlcNAc
# Procedure, shortened: as §1
# [8] = target: Neu5Ac(a2-3)Gal(b1-4)Glc
# Procedure, shortened: as §1
# [9] = target: Neu5Ac(a2-3)Gal(b1-4)GlcNAc
# Procedure, shortened: as §1
# [10] = target: Neu5Ac(a2-3)Gal(b1-4)GlcNAc(b1-2)Man
# Procedure, shortened: as §1
# [11] = target: Neu5Ac(a2-3)Gal(b1-4)GlcNAc(b1-2)Man(a1-3)[GlcNAc(b1-4)][Neu5Ac(a2-3)Gal(b1-4)GlcNAc(b1-2)Man(a1-6)]Man(b1-4)GlcNAc(b1-4)GlcNAc
# Procedure, shortened: as §1
# [12] = target: Neu5Ac(a2-3)Gal(b1-4)GlcNAc(b1-2)Man(a1-3)[Neu5Ac(a2-3)Gal(b1-4)GlcNAc(b1-2)Man(a1-6)]Man(b1-4)GlcNAc(b1-4)GlcNAc
# Procedure, shortened: as §1
# [13] = target: Neu5Ac(a2-3)Gal(b1-4)GlcNAc(b1-2)Man(a1-3)[Neu5Ac(a2-3)Gal(b1-4)GlcNAc(b1-2)Man(a1-6)]Man(b1-4)GlcNAc(b1-4)[Fuc(a1-6)]GlcNAc
# Procedure, shortened: as §1
# [14] = target: Neu5Ac(a2-3)Gal(b1-4)GlcNAc(b1-2)Man(a1-3)[Neu5Ac(a2-6)Gal(b1-4)GlcNAc(b1-2)Man(a1-6)]Man(b1-4)GlcNAc(b1-4)GlcNAc
# Procedure, shortened: as §1
# [15] = target: Neu5Ac(a2-3)Gal(b1-4)GlcNAc(b1-2)[Neu5Ac(a2-3)Gal(b1-4)GlcNAc(b1-4)]Man(a1-3)[GlcNAc(b1-4)][Neu5Ac(a2-3)Gal(b1-4)GlcNAc(b1-2)[Neu5Ac(a2-3)Gal(b1-4)GlcNAc(b1-6)]Man(a1-6)]Man(b1-4)GlcNAc(b1-4)GlcNAc
# Procedure, shortened: as §1
# [16] = target: Neu5Ac(a2-3)Gal(b1-4)GlcNAc(b1-2)[Neu5Ac(a2-3)Gal(b1-4)GlcNAc(b1-4)]Man(a1-3)[GlcNAc(b1-4)][Neu5Ac(a2-3)Gal(b1-4)GlcNAc(b1-4)Man(a1-6)]Man(b1-4)GlcNAc(b1-4)GlcNAc
# Procedure, shortened: as §1
# [17] = target: Neu5Ac(a2-3)Gal(b1-4)GlcNAc(b1-2)[Neu5Ac(a2-3)Gal(b1-4)GlcNAc(b1-6)]Man(a1-6)[Neu5Ac(a2-3)Gal(b1-4)GlcNAc(b1-2)Man(a1-3)]Man(b1-4)GlcNAc(b1-4)GlcNAc
# Procedure, shortened: as §1
# [18] = target: Neu5Ac(a2-3)Gal(b1-4)GlcNAc(b1-2)[Neu5Ac(a2-3)Gal(b1-4)GlcNAc(b1-6)]Man(a1-6)[Neu5Ac(a2-3)Gal(b1-4)GlcNAc(b1-2)Man(a1-3)][GlcNAc(b1-4)]Man(b1-4)GlcNAc(b1-4)GlcNAc
# Procedure, shortened: as §1
# [19] = target: Neu5Ac(a2-3)Gal(b1-4)GlcNAc(b1-3)Gal
# Procedure, shortened: as §1
# [20] = target: Neu5Ac(a2-3)Gal(b1-4)GlcNAc(b1-3)Gal(b1-3)GlcNAc
# Procedure, shortened: as §1
# [21] = target: Neu5Ac(a2-3)Gal(b1-4)GlcNAc(b1-3)Gal(b1-4)GlcNAc
# Procedure, shortened: as §1
# [22] = target: Neu5Ac(a2-3)Gal(b1-4)GlcNAc(b1-3)Gal(b1-4)GlcNAc(b1-2)Man(a1-3)[Neu5Ac(a2-3)Gal(b1-4)GlcNAc(b1-3)Gal(b1-4)GlcNAc(b1-2)Man(a1-6)]Man(b1-4)GlcNAc(b1-4)GlcNAc
# Procedure, shortened: as §1
# [23] = target: Neu5Ac(a2-3)Gal(b1-4)GlcNAc(b1-3)Gal(b1-4)GlcNAc(b1-3)Gal(b1-4)GlcNAc
# Procedure, shortened: as §1
# [24] = target: Neu5Ac(a2-3)Gal(b1-4)GlcNAc(b1-3)Gal(b1-4)GlcNAc(b1-3)Gal(b1-4)GlcNAc(b1-2)Man(a1-3)[Neu5Ac(a2-3)Gal(b1-4)GlcNAc(b1-3)Gal(b1-4)GlcNAc(b1-3)Gal(b1-4)GlcNAc(b1-2)Man(a1-6)]GalNAc
# Procedure, shortened: as §1
# [25] = target: Neu5Ac(a2-3)Gal(b1-4)GlcNAc(b1-3)Gal(b1-4)GlcNAc(b1-3)GalNAc
# Procedure, shortened: as §1
# [26] = target: Neu5Ac(a2-3)Gal(b1-4)GlcNAc(b1-3)Gal(b1-4)GlcNAc(b1-3)[Neu5Ac(a2-3)Gal(b1-4)GlcNAc(b1-3)Gal(b1-4)GlcNAc(b1-6)]GalNAc
# Procedure, shortened: as §1
# [27] = target: Neu5Ac(a2-3)Gal(b1-4)GlcNAc(b1-3)Gal(b1-4)GlcNAc(b1-6)[Gal(b1-3)]GalNAc
# Procedure, shortened: as §1
# [28] = target: Neu5Ac(a2-3)Gal(b1-4)GlcNAc(b1-3)Gal(b1-4)[Fuc(a1-3)]GlcNAc
# Procedure, shortened: as §1
# [29] = target: Neu5Ac(a2-3)Gal(b1-4)GlcNAc(b1-3)GalNAc
# Procedure, shortened: as §1
# [30] = target: Neu5Ac(a2-3)Gal(b1-4)GlcNAc(b1-3)[Neu5Ac(a2-3)Gal(b1-4)GlcNAc(b1-6)]GalNAc
# Procedure, shortened: as §1
# [31] = target: Neu5Ac(a2-3)Gal(b1-4)GlcNAc(b1-6)GalNAc
# Procedure, shortened: as §1
# [32] = target: Neu5Ac(a2-3)Gal(b1-4)GlcNAc(b1-6)[Gal(b1-3)]GalNAc
# Procedure, shortened: as §1
# [33] = target: Neu5Ac(a2-3)Gal(b1-4)GlcNAc(b1-6)[Neu5Ac(a2-3)Gal(b1-3)]GalNAc
# Procedure, shortened: as §1
# [34] = target: Neu5Ac(a2-3)Gal(b1-4)GlcNAc6S
# Procedure, shortened: as §1
# [35] = target: Neu5Ac(a2-3)Gal(b1-4)[Fuc(a1-3)]GlcNAc
# Procedure, shortened: as §1
# [36] = target: Neu5Ac(a2-3)Gal(b1-4)[Fuc(a1-3)]GlcNAc(b1-2)Man
# Procedure, shortened: as §1
# [37] = target: Neu5Ac(a2-3)Gal(b1-4)[Fuc(a1-3)]GlcNAc(b1-3)Gal
# Procedure, shortened: as §1
# [38] = target: Neu5Ac(a2-3)Gal(b1-4)[Fuc(a1-3)]GlcNAc(b1-3)Gal(b1-4)GlcNAc
# Procedure, shortened: as §1
# [39] = target: Neu5Ac(a2-3)Gal(b1-4)[Fuc(a1-3)]GlcNAc(b1-3)Gal(b1-4)[Fuc(a1-3)]GlcNAc(b1-3)Gal(b1-4)[Fuc(a1-3)]GlcNAc
# Procedure, shortened: as §1
# [40] = target: Neu5Ac(a2-3)Gal(b1-4)[Fuc(a1-3)]GlcNAc(b1-3)GalNAc
# Procedure, shortened: as §1
# [41] = target: Neu5Ac(a2-3)Gal(b1-4)[Fuc(a1-3)]GlcNAc(b1-6)[Gal(b1-3)]GalNAc
# Procedure, shortened: as §1
# [42] = target: Neu5Ac(a2-3)Gal(b1-4)[Fuc(a1-3)]GlcNAc(b1-6)[Neu5Ac(a2-3)Gal(b1-3)]GalNAc
# Procedure, shortened: as §1
# [43] = target: Neu5Ac(a2-3)Gal(b1-4)[Fuc(a1-3)]GlcNAc6S
# Procedure, shortened: as §1
# [44] = target: Neu5Ac(a2-3)Gal6S(b1-4)GlcNAc
# Procedure, shortened: as §1
# [45] = target: Neu5Ac(a2-3)Gal6S(b1-4)[Fuc(a1-3)]GlcNAc
# Procedure, shortened: as §1
binder,measurement,setting,value
B1,glycan array binding signal (z-score),[1],-0.333
same,glycan array binding signal (z-score),[2],-0.062
same,glycan array binding signal (z-score),[3],-0.465
same,glycan array binding signal (z-score),[4],0.726
same,glycan array binding signal (z-score),[5],-0.277
same,glycan array binding signal (z-score),[6],-0.281
same,glycan array binding signal (z-score),[7],-0.291
same,glycan array binding signal (z-score),[8],-0.342
same,glycan array binding signal (z-score),[9],0.161
same,glycan array binding signal (z-score),[10],-0.304
same,glycan array binding signal (z-score),[11],0.495
same,glycan array binding signal (z-score),[12],0.446
same,glycan array binding signal (z-score),[13],0.221
same,glycan array binding signal (z-score),[14],-0.094
same,glycan array binding signal (z-score),[15],-0.105
same,glycan array binding signal (z-score),[16],-0.095
same,glycan array binding signal (z-score),[17],-0.066
same,glycan array binding signal (z-score),[18],0.576
same,glycan array binding signal (z-score),[19],-0.334
same,glycan array binding signal (z-score),[20],-0.332
same,glycan array binding signal (z-score),[21],0.317
same,glycan array binding signal (z-score),[22],0.444
same,glycan array binding signal (z-score),[23],1.06
same,glycan array binding signal (z-score),[24],0.307
same,glycan array binding signal (z-score),[25],-0.353
same,glycan array binding signal (z-score),[26],-0.001
same,glycan array binding signal (z-score),[27],-0.149
same,glycan array binding signal (z-score),[28],-0.372
same,glycan array binding signal (z-score),[29],-0.376
same,glycan array binding signal (z-score),[30],-0.318
same,glycan array binding signal (z-score),[31],-0.274
same,glycan array binding signal (z-score),[32],-0.357
same,glycan array binding signal (z-score),[33],-0.151
same,glycan array binding signal (z-score),[34],0.05
same,glycan array binding signal (z-score),[35],-0.282
same,glycan array binding signal (z-score),[36],-0.349
same,glycan array binding signal (z-score),[37],-0.355
same,glycan array binding signal (z-score),[38],0.06
same,glycan array binding signal (z-score),[39],-0.293
same,glycan array binding signal (z-score),[40],-0.268
same,glycan array binding signal (z-score),[41],-0.292
same,glycan array binding signal (z-score),[42],-0.275
same,glycan array binding signal (z-score),[43],-0.378
same,glycan array binding signal (z-score),[44],-0.339
same,glycan array binding signal (z-score),[45],-0.372
